Laboratory results: PubChem BioAssay AID1347071 (National Center for Advancing Translational Sciences (NCATS), 2019)
The whole screen tested about 410,000 compounds, of which about 260 (0.063%) were called active. This list was built around the results that the source calls inconclusive (neither active nor inactive); the mix of calls is not that of the screen. The call rests on the fitted dose curve; in most records, active means well fitted activation curve with a large enough effect; inconclusive means small, poorly fitted or top-dose-only effect; inactive means no such curve, though single readings can be large or run the other way. No potency is given beside an inconclusive call; the fits are too rough.

Experiment: qHTS for compounds that reverse cellular toxicity of Amyloid beta (A-beta) peptide in yeast: Primary Screen; further: nearly all actives have a fitted effect of over 55% in size
Details: yeast expressing A-beta42, growth rescue, OD600, 48 h; growth rescue: at 46.1 µM (top of the series), 0% DMSO, 100% iron-clioquinol control
Method in brief: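 Yeast A-beta toxicity model in growth medium with pinned compounds, 48 h at 30 C; growth read as absorbance at 600 nm. Normalized to FeCl3/clioquinol equimolar mix (positive) and DMSO (negative).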
Potency means the concentration at half of the fitted maximal effect; tags describe the fitted curve by direction and shape.

SMILES | Potency | growth rescue
O=C(NC1CCN(Cc2ccc(Cl)cc2)CC1)c1cn(-c2ccccc2)nc1-c1cccnc1 | inconclusive [activator, single point] | –
Fc1ccc(CNc2nc(-c3ccco3)cc(C(F)(F)F)n2)cc1 | inconclusive [activator, partial curve, poor fit] | –
Fc1ccccc1OCCn1c(=S)[nH]c2ccccc21 | inconclusive [activator, partial curve, poor fit] | –
COc1ccc(Cc2c(-c3cccc(Cl)c3)nc3ccc(Cl)cn23)c(C)c1 | inactive | –
c1ccc(Cn2c(CNc3nc4ccccc4n3CCN3CCCCC3)nc3ccccc32)cc1 | inconclusive [activator, full curve, poor fit] | –
CN(C)S(=O)(=O)Nc1ccc2c(c1)Cc1ccccc1-2 | inconclusive [activator, single point] | –
Cc1ccc(NC(=S)NC(=O)C2CC2)cc1Cl | inconclusive [activator, partial curve, poor fit] | –
Cc1ccc(C)c(NC(=O)c2cc([N+](=O)[O-])cc([N+](=O)[O-])c2)c1 | inconclusive [activator, full curve] | –
O=C(Nc1ccc(Cl)cc1)C1CCN(c2nc3ccccc3n3cccc23)CC1 | inactive | –
O=C(CCC(=O)OCc1ccc(Cl)cc1)Nc1cccc([N+](=O)[O-])c1 | inconclusive [activator, partial curve, poor fit] | –
COc1ccc(CNc2nc3c(c(=O)n(Cc4ccc(Cl)cc4)c(=O)n3C)n2C)cc1 | inconclusive [activator, partial curve] | –
Cc1cc2c(ncn2Cc2ccccc2)c([N+](=O)[O-])c1C | inconclusive [activator, partial curve, poor fit] | –
O=S(=O)(c1ccc(F)cc1F)N1CCCN(c2ccc(C(F)(F)F)cn2)CC1 | inconclusive [activator, partial curve, poor fit] | –
O=[N+]([O-])c1ccc2nc(-c3ccccn3)[nH]c2c1 | inconclusive [activator, single point] | –
CSc1ccc(/C=N/Nc2nc(C)cc(C)n2)cc1 | inconclusive [activator, single point] | –
CC(=O)N(c1ccc(N(C(C)=O)S(=O)(=O)c2ccccc2)cc1)S(=O)(=O)c1ccccc1 | inactive | –
CC(C(=O)N1CCc2ccccc21)n1cnc2c1c(=O)n(C)c(=O)n2C (stereo unspecified) | inactive | –
O=C(NCc1ccc(F)cc1)c1ccc2c(Cl)c3c(nc2c1)CCCC3 | inconclusive [activator, partial curve, poor fit] | –
CCOc1ccc(-c2nonc2NC(=O)c2oc3cc(C)ccc3c2C)cc1 | inconclusive [activator, partial curve] | –
CC1(C)CC(N2CCN(CCO)CC2)=CC(=S)N1 | inactive | –
CCc1cccc(-n2c(C)nc3c(cnn3-c3ccc(Cl)cc3)c2=O)c1 | inconclusive [activator, single point] | –
CCOC(=O)c1cc(-c2ccccc2)n(-c2cccc(C(=O)Nc3ccc(F)c(F)c3)c2)c1C | inactive | –

SMILES | Potency | growth rescue
C/C(=N\NC(=S)NCC(C)(C)C)c1cc(F)cc(F)c1O | inconclusive [activator, partial curve, poor fit] | –
COCCN(CC(=O)Nc1cccc(C)c1C)C(=O)C1(c2ccc(Cl)cc2)CCC1 | inconclusive [activator, partial curve] | –
COc1ccc(N2CCN(C(=O)CCc3c(C)nn(-c4ccc(N5CCCC5)nn4)c3C)CC2)cc1 | inactive | –
C=CCN1CN(CCc2ccccc2)CNC1=S | inconclusive [activator, partial curve, poor fit] | –
Cc1nc2c(-c3ccc(Cl)cc3)c(C)[nH]n2c(=O)c1Cc1ccccc1 | inactive | –
Cc1ccc(C)c(N2CCN(C(=O)C3CCN(c4nc(-c5ccc(C(C)C)cc5)no4)CC3)CC2)c1 | inconclusive [activator, single point] | –
O=C(CN1C(=O)COc2ccc(S(=O)(=O)N3CCCCCC3)cc21)NCc1ccc(Cl)cc1 | inconclusive [activator, full curve] | –
NC(=S)N/N=C/c1ccc(C23CC4CC(CC(C4)C2)C3)cc1 | inconclusive [activator, partial curve] | –
CC(C)c1ccc(-c2nnn(CCC#N)n2)cc1 | inconclusive [activator, partial curve, poor fit] | –
O=C(Nc1cccc(Cl)c1)OCCOCCOC(=O)Nc1cccc(Cl)c1 | inconclusive [activator, partial curve] | –
O=C(COC(=O)c1cccc(Oc2ccccc2)c1)NCc1ccco1 | inconclusive [activator, full curve, poor fit] | –
O=C(O)/C=C/C(=O)Nc1ccc(Cc2ccc(NC(=O)/C=C/C(=O)O)cc2)cc1 | inconclusive [activator, partial curve, poor fit] | –
COC(=O)/C(C#N)=C/c1c(N2CCCCCC2)nc2c(C)cccn2c1=O | inconclusive [activator, partial curve, poor fit] | –
CCN(CC)c1ccc(NC(=O)COC(=O)CSc2ccc(Br)cc2C)cc1 | inconclusive [activator, partial curve, poor fit] | –
CN(C)S(=O)(=O)Oc1ccsc1C(=O)Nc1ccc(Br)cc1 | inconclusive [activator, partial curve] | –
COc1ccc(OCC(=O)NNC(=S)NC(=O)C2CC2)cc1 | inconclusive [activator, single point] | –
COc1cc(OC)c(NC(=O)N2CCC(CN3CCCC3)CC2)cc1Cl | inactive | –
Cc1ccc(CNc2ccc3cc(S(=O)(=O)N4CCCCC4)ccc3n2)cc1 | inconclusive [activator, single point] | –
O=C(O/N=C1\CCCc2ccccc21)c1cccc(Cl)c1 | inactive | –
CC1CCCCC1NC(=S)Nc1ccc(SC(F)F)cc1 (stereo unspecified) | inconclusive [activator, single point] | –
CCC(C)c1ccccc1NC(=O)c1cc2cccc([N+](=O)[O-])c2[nH]1 (stereo unspecified) | – | inconclusive: -46.7% [activator]
Cc1ccc(-c2csc3nc[nH]c(=S)c23)cc1C | inconclusive [activator, single point] | –

SMILES | Potency | growth rescue
CC(C)c1ccc(CNc2ccc3c(c2)ncn3C)cc1 | inactive | –
COc1ccccc1N(C)c1cc2c(c3c1ccn3C)C1CCC2C1 (stereo unspecified) | inconclusive [activator, single point] | –
CSc1nc(-c2ccccc2)nn1S(=O)(=O)c1ccc(Cl)cc1 | inactive | –
Cc1ccc(N=C2SC(C(=O)NCCc3ccccc3)CC(=O)N2C)cc1C (stereo unspecified) | inconclusive [activator, single point] | –
COc1cc(OC)cc(C(=O)NCCc2csc(-c3cccc(C)c3)n2)c1 | inactive | –
C/C(=N\NC(=S)NCc1ccccc1)C1CCCCC1 | inconclusive [activator, single point] | –
c1ccc(C(c2ccccc2)c2ccn[nH]2)cc1 | inconclusive [activator, single point] | –
CC(C)N(Cc1ccccc1)C(=O)c1cc2ccc3cccnc3c2[nH]1 | inactive | –
S=C(Nc1ccccc1)N1CCC(Cc2ccccc2)CC1 | inconclusive [activator, partial curve, poor fit] | –
CN1CCN(C(=O)c2c(NC(=O)c3ccco3)sc3c2CCC(C(C)(C)C)C3)CC1 (stereo unspecified) | inactive | –
CCCn1c(=O)c2ccccc2n2c(Sc3nnnn3-c3ccccc3)nnc12 | inactive | –
Cc1ccc(NC(=O)CN2C(=O)C(=O)N(C3CCCC3)C2=O)c(Cl)c1 | inconclusive [activator, single point] | –
CCOC(=O)[C@H]1[C@H]2COc3cc(OC)ccc3[C@@H]2N2C(=O)CN(Cc3ccc(Cl)cc3)C(=O)[C@@]12C | inconclusive [activator, partial curve, poor fit] | –
COc1ccc(CCNc2ncnc3c2nnn3C)cc1OC | inactive | –
Cn1cccc1C(=O)NC(=O)COC(=O)CC12CC3CC(CC(C3)C1)C2 | inconclusive [activator, partial curve, poor fit] | –
CCCCn1c(N)c(C(=S)NC(=O)CC(C)C)c(=O)n(C)c1=O | inconclusive [activator, full curve] | –
CC(NC(=O)C1CCCN(C(=O)c2ccc(Cl)cc2)C1)c1cccc(C(F)(F)F)c1 (stereo unspecified) | inconclusive [activator, single point] | –
CCCOc1ccc(C(=O)NNC(=S)NC(C)=O)cc1 | inconclusive [activator, single point] | –
OC(c1ccccc1)(c1nc(-c2ccccc2)cs1)C(F)(F)F (stereo unspecified) | inconclusive [activator, single point] | –
Cc1nc2ccc(NC(=O)Cc3ccccc3F)cc2s1 | inconclusive [activator, single point] | –
COc1ccc(C(C(=O)Nc2ccc(C(C)C)cc2)N(C)C(=O)Cc2cccs2)cc1 (stereo unspecified) | inconclusive [activator, partial curve] | –
OC(c1ccccc1)(c1ccccc1)c1nccn1-c1ccccc1 | inconclusive [activator, partial curve] | –
